Measured values: a collection of fitness landscapes (doi:10.1016/j.celrep.2020.107928)
Over roughly 81,000 sequences, “one-hybrid fitness for binding parS DNA” has its median near -0.17; the highest 2% begin near 0.51. The list shows a part of the results.

B1: Caulobacter ParB omega fusion; a variant is named by its letters at X, in order, B8GW30 (parent)
chain: MESVVVGEPGMSEGRRGLGRGLSALLGEVDAAPAQAPGEQLGGSREAPIEILQRNPDQPRRTFREEDLEDLSNSIREKGVLQPILVRPSPDTAGEYQIVAGERAWRAAQRAGLKTVPIMVRELDDLAVLEIGIIENVQRADLNVLEEALSYKVLMEKFERTQENIAQTIGKSXSHVANXMRLLXLPDEVQSYLVSGELTAXHARAIAAAADPVALAKQIIEGGLSVRETEALARKAPNLSAGKSKGGRPPRVKDTDTQALESDLSSVLGLDVSIDHRGSTGTLTITYATLEQLDDLCNRLTRGI

Variants of: B1
Assay: one-hybrid fitness for binding parS DNA (scaled: cognate 1, non-cognate 0); higher = stronger binding
Conditions: with parS DNA site
Outline: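 Values were rescaled so that cognate is 1 and non-cognate is 0. Each is a fitness, the log change in a variant's read ratio to wild type from Illumina reads of plasmids before and after selection, with three replicate libraries pooled and variants under 10 reads dropped. Selection of the Caulobacter ParB libraries, four specificity codons randomised, used E. coli USO with a HIS3 reporter, site 19 bp from the promoter, on M9-minus-histidine with 0.1 mM IPTG and 5 mM 3-AT for 48 hours at 37°C.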

Row | Variant | one-hybrid fitness for binding parS DNA
1 | KRGH | ≤ 0.2
2 | RHLP | ≤ 0.2
3 | IDGW | ≤ 0.2
4 | DMFR | ≤ 0.2
5 | VGLR | ≤ 0.2
6 | RYLI | ≤ 0.2
7 | GMCG | ≤ 0.2
8 | NFYV | ≤ 0.2
9 | RDKH | ≤ 0.2
10 | FSSR | ≤ 0.2
11 | VSMW | ≤ 0.2
12 | ASLD | ≤ 0.2
13 | HHSF | ≤ 0.2
14 | IFER | ≤ 0.2
15 | RIRV | ≤ 0.2
16 | YRGY | ≤ 0.2
17 | TDDG | ≤ 0.2
18 | HHKW | ≤ 0.2
19 | CASY | ≤ 0.2
20 | QSHQ | ≤ 0.2
21 | TTKT | ≤ 0.2
22 | HTNF | ≤ 0.2
23 | HTQN | ≤ 0.2
24 | QNKM | ≤ 0.2

Row | Variant | one-hybrid fitness for binding parS DNA
25 | SELD | ≤ 0.2
26 | PDFR | ≤ 0.2
27 | CSLF | ≤ 0.2
28 | TTNC | ≤ 0.2
29 | DMCG | ≤ 0.2
30 | YLVH | ≤ 0.2
31 | KDKC | ≤ 0.2
32 | TMLE | ≤ 0.2
33 | AQES | ≤ 0.2
34 | TKLG | ≤ 0.2
35 | PKSI | ≤ 0.2
36 | RMPF | ≤ 0.2
37 | SSPK | ≤ 0.2
38 | AAAR | ≤ 0.2
39 | NTKS | ≤ 0.2
40 | QVCN | ≤ 0.2
41 | DLNR | ≤ 0.2
42 | HINP | ≤ 0.2
43 | TTAL | ≤ 0.2
44 | GAPF | ≤ 0.2
45 | MHRM | ≤ 0.2
46 | RYHN | 0.421
47 | QRVI | ≤ 0.2
48 | QDCT | ≤ 0.2

Row | Variant | one-hybrid fitness for binding parS DNA
49 | IMWC | ≤ 0.2
50 | RDGM | ≤ 0.2
51 | GPML | ≤ 0.2
52 | ANQG | ≤ 0.2
53 | CNTT | ≤ 0.2
54 | IVVM | ≤ 0.2
55 | AANF | ≤ 0.2
56 | ALFG | ≤ 0.2
57 | AEGL | ≤ 0.2
58 | YDLV | ≤ 0.2
59 | RAQA | 0.548
60 | WDKT | ≤ 0.2
61 | NFVE | ≤ 0.2
62 | QCTN | ≤ 0.2
63 | DPFG | ≤ 0.2
64 | TEGV | ≤ 0.2
65 | SNLS | ≤ 0.2
66 | IFSW | ≤ 0.2
67 | HFSK | ≤ 0.2
68 | CWNR | ≤ 0.2
69 | GVPR | ≤ 0.2
70 | ERAT | ≤ 0.2
71 | YRNT | ≤ 0.2
72 | QLSL | ≤ 0.2

Row | Variant | one-hybrid fitness for binding parS DNA
73 | HLVL | ≤ 0.2
74 | ANLG | ≤ 0.2
75 | SIYI | ≤ 0.2
76 | PKYR | ≤ 0.2
77 | ANTL | ≤ 0.2
78 | CSHS | ≤ 0.2
79 | QSML | ≤ 0.2
80 | RWEN | ≤ 0.2
81 | EWAS | ≤ 0.2
82 | TLQR | ≤ 0.2
83 | WYAT | ≤ 0.2
84 | RSEM | 0.246
85 | KMYC | ≤ 0.2
86 | AKVY | ≤ 0.2
87 | LSKE | ≤ 0.2
88 | LTWE | ≤ 0.2
89 | EIYC | ≤ 0.2
90 | EGTV | ≤ 0.2
91 | QIYN | ≤ 0.2
92 | QGKA | ≤ 0.2
93 | EYTP | ≤ 0.2
94 | LIHI | 0.217
95 | IQVG | ≤ 0.2
96 | TLMF | ≤ 0.2

Row | Variant | one-hybrid fitness for binding parS DNA
97 | KRHM | ≤ 0.2
98 | AFTR | ≤ 0.2
99 | WAMS | ≤ 0.2
100 | HCPW | ≤ 0.2
101 | LRKH | ≤ 0.2
102 | RELI | ≤ 0.2
103 | DYHN | ≤ 0.2
104 | GIAG | ≤ 0.2
105 | WVKS | ≤ 0.2
106 | DSTK | ≤ 0.2
107 | RNTV | ≤ 0.2
108 | KPQC | ≤ 0.2
109 | VSPC | ≤ 0.2
110 | FEVT | ≤ 0.2
111 | CTLT | ≤ 0.2
112 | RVYY | 0.495
113 | QTFI | ≤ 0.2
114 | MDSK | ≤ 0.2
115 | RNIM | ≤ 0.2
116 | SAHE | ≤ 0.2
117 | LYSL | ≤ 0.2
118 | LPAC | ≤ 0.2
119 | ELGG | ≤ 0.2
120 | HYCS | ≤ 0.2

Row | Variant | one-hybrid fitness for binding parS DNA
121 | EPHG | ≤ 0.2
122 | VMTC | ≤ 0.2
123 | QQGA | ≤ 0.2
124 | LYPK | ≤ 0.2
125 | AAEI | ≤ 0.2
126 | PVTY | ≤ 0.2
127 | LVDT | ≤ 0.2
128 | PGLC | ≤ 0.2
129 | NECV | ≤ 0.2
130 | RNWI | ≤ 0.2
131 | TRMT | ≤ 0.2
132 | HGTC | ≤ 0.2
133 | RQLI | ≤ 0.2
134 | HGNC | ≤ 0.2
135 | ASFQ | ≤ 0.2
136 | QMQV | ≤ 0.2
137 | AFQM | ≤ 0.2
138 | HKSL | ≤ 0.2
139 | QGTE | ≤ 0.2
140 | NWQS | ≤ 0.2
141 | TTDR | ≤ 0.2
142 | RICN | 0.447
143 | NINA | ≤ 0.2
144 | RMVN | 0.422

Row | Variant | one-hybrid fitness for binding parS DNA
145 | VTQS | ≤ 0.2
146 | VALP | ≤ 0.2
147 | PPCT | ≤ 0.2
148 | QVYF | ≤ 0.2
149 | KRGS | ≤ 0.2
150 | CNTM | ≤ 0.2
151 | RTQF | 0.213
152 | VYKR | ≤ 0.2
153 | MPGT | ≤ 0.2
154 | STTN | ≤ 0.2
155 | RSWW | ≤ 0.2
156 | YMAC | ≤ 0.2
157 | KEEG | ≤ 0.2
158 | QHID | ≤ 0.2
159 | IMYS | ≤ 0.2
160 | SRLW | ≤ 0.2
161 | HTNN | ≤ 0.2
162 | ACKT | ≤ 0.2
163 | ITCL | ≤ 0.2
164 | APKA | ≤ 0.2
165 | QAAQ | ≤ 0.2
166 | GSYR | ≤ 0.2
167 | TRKL | ≤ 0.2
168 | NPHR | ≤ 0.2

Row | Variant | one-hybrid fitness for binding parS DNA
169 | NMRL | ≤ 0.2
170 | RKPQ | ≤ 0.2
171 | VIKC | ≤ 0.2
172 | LWDG | ≤ 0.2
173 | DQLF | ≤ 0.2
174 | CITL | ≤ 0.2
175 | QMLW | ≤ 0.2
176 | DCPC | ≤ 0.2
177 | RYAL | ≤ 0.2
178 | ARRR | ≤ 0.2
179 | QTPD | ≤ 0.2
180 | RMFW | 0.274
181 | MVRA | ≤ 0.2
182 | CHMG | ≤ 0.2
183 | LRKI | ≤ 0.2
184 | RRAW | ≤ 0.2
185 | DYVS | ≤ 0.2
186 | KGGT | ≤ 0.2
187 | LASG | ≤ 0.2
188 | GTLS | ≤ 0.2
189 | YRTN | ≤ 0.2
190 | TRPQ | ≤ 0.2
191 | KNPR | ≤ 0.2
192 | QQII | ≤ 0.2

Row | Variant | one-hybrid fitness for binding parS DNA
193 | QKAH | ≤ 0.2
194 | RRRV | ≤ 0.2
195 | RTDF | ≤ 0.2
196 | SSNA | ≤ 0.2
197 | KRAM | ≤ 0.2
198 | KTKG | ≤ 0.2
199 | KSEI | ≤ 0.2
200 | PLLR | ≤ 0.2
201 | LYPL | ≤ 0.2
202 | NQDS | ≤ 0.2
203 | QQQP | ≤ 0.2
204 | GQQR | ≤ 0.2
205 | YFLW | ≤ 0.2
206 | SELM | ≤ 0.2
207 | RYWT | 0.787
208 | IRSI | ≤ 0.2
209 | YSLM | ≤ 0.2
210 | GRAY | ≤ 0.2
211 | GELN | ≤ 0.2
212 | KPGV | ≤ 0.2
213 | GLEC | ≤ 0.2
214 | WLTK | ≤ 0.2
215 | TIVT | ≤ 0.2
216 | EEPA | ≤ 0.2

Row | Variant | one-hybrid fitness for binding parS DNA
217 | VTVI | ≤ 0.2
218 | VKLA | ≤ 0.2
219 | NVSR | ≤ 0.2
220 | PYTQ | ≤ 0.2
221 | PART | ≤ 0.2
222 | TTPP | ≤ 0.2
223 | IEGG | ≤ 0.2
224 | KRFY | ≤ 0.2
225 | EDVN | ≤ 0.2
226 | QYSG | ≤ 0.2
227 | PQHW | ≤ 0.2
228 | THRD | ≤ 0.2
229 | SSTM | ≤ 0.2
230 | ILPR | ≤ 0.2
231 | WHKM | ≤ 0.2
232 | GNQC | ≤ 0.2
233 | HVQN | ≤ 0.2
234 | KDNI | ≤ 0.2
235 | IATV | ≤ 0.2
236 | AKGS | ≤ 0.2
237 | YLAR | ≤ 0.2
238 | SEPY | ≤ 0.2
239 | SRNC | ≤ 0.2
240 | SRGV | ≤ 0.2

Row | Variant | one-hybrid fitness for binding parS DNA
241 | VRPE | ≤ 0.2
242 | IDVR | ≤ 0.2
243 | EGSD | ≤ 0.2
244 | PQFT | ≤ 0.2
245 | CRRV | ≤ 0.2
246 | EKRS | ≤ 0.2
247 | RAGI | ≤ 0.2
248 | VYLK | ≤ 0.2
249 | HVMS | ≤ 0.2
250 | RFNF | ≤ 0.2
251 | CPHV | ≤ 0.2
252 | LTKH | ≤ 0.2
253 | HASW | ≤ 0.2
254 | LRKN | ≤ 0.2
255 | NDNT | ≤ 0.2
256 | GARP | ≤ 0.2
257 | GWAG | ≤ 0.2
258 | NCAN | ≤ 0.2
259 | DVRR | ≤ 0.2
260 | PPLG | ≤ 0.2
261 | HRYI | ≤ 0.2
262 | WTAA | ≤ 0.2
263 | CQSC | ≤ 0.2
264 | TIID | ≤ 0.2

Row | Variant | one-hybrid fitness for binding parS DNA
265 | FLPN | ≤ 0.2
266 | ASMT | ≤ 0.2
267 | CHRI | ≤ 0.2
268 | LNSK | ≤ 0.2
269 | QLWW | ≤ 0.2
270 | QQMA | ≤ 0.2
271 | TFPA | ≤ 0.2
272 | SPHP | ≤ 0.2
273 | NIIY | ≤ 0.2
274 | TASY | ≤ 0.2
275 | TAGH | ≤ 0.2
276 | SDHQ | ≤ 0.2
277 | CMIT | ≤ 0.2
278 | EFVT | ≤ 0.2
279 | SSTR | ≤ 0.2
280 | THQR | ≤ 0.2
281 | RKQH | ≤ 0.2
282 | YVPT | ≤ 0.2
283 | DVPM | ≤ 0.2
284 | GTKV | ≤ 0.2
285 | CVFW | ≤ 0.2
286 | QNLM | ≤ 0.2
287 | GPHD | ≤ 0.2
288 | MGSD | ≤ 0.2

Row | Variant | one-hybrid fitness for binding parS DNA
289 | CGLG | ≤ 0.2
290 | VASS | ≤ 0.2
291 | ALWG | ≤ 0.2
292 | LRHY | ≤ 0.2
293 | GMPS | ≤ 0.2
294 | IKVE | ≤ 0.2
295 | YMPM | ≤ 0.2
296 | RLDL | ≤ 0.2
297 | QPPW | ≤ 0.2
298 | TQPY | ≤ 0.2
299 | NLHT | ≤ 0.2
300 | MAYR | ≤ 0.2
301 | AMLR | ≤ 0.2
302 | SWIL | ≤ 0.2
303 | RIWE | ≤ 0.2
304 | PLNF | ≤ 0.2
305 | PWQA | ≤ 0.2
306 | AKMV | ≤ 0.2
